Data on 34 variants can be found in the RNAGym collection of RNA variant scans (doi:10.1093/nar/gkz1192).

First the molecules themselves.
B1: CPEB3 Ribozyme (parent)
chain: UAACAGGGGGCCACAGCAGAAGCGUUCACGUCGCAGCCCCUGUCAGAUUCUGGUGAAUCUGCGAAUUCUGCUGUAUAUCUC

The source gives no read counts; variants with many changes may rest on few reads.

The data set covers variants of B1. Put plainly: self-cleavage, relative activity (ratio to wild type); higher = more cleavage; in vitro, sequencing. An outline of the steps:
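After error-prone PCR and barcoding, CPEB3 ribozyme mutant libraries were transcribed with T7 RNA polymerase at 37°C for 5 hours, then given 15 min with DNase I before an EDTA stop, and they cleaved during both steps. Reverse transcription with template switching preceded Illumina sequencing. Relative activity divides a variant's cleaved/total read fraction by the unmutated ribozyme's. At least 5 reads were required per variant, and three batches were averaged.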
For CAACAGGGGGCCACAGCAGAAGCGUUCACGUCGCAGCCCCUGUCAGAUUCUGGUGGAUCUGCGAAUUCUGCAGUAUAUCUC [U1C A56G U72A], the self-cleavage is 0.45.

As for CAACAGGGGGCCACAGCAGAAGCGUUCACGUCGCUGCCCCUGUCAGAUUCUGGUGAAUCUGCGAGUUCCGCAGUAUAUCUC [U1C A35U A65G U69C U72A], the self-cleavage turned out to be 0.17.

Regarding CAACAGGGGGCCACAGCAGAAGCGUUCACGUCGCUGCCCCUGUCAGAUCCUGGUGAAUCUGCGAAUCCUGCUGUAGACCUC [U1C A35U U49C U67C U76G U78C], the self-cleavage was 0.05.

As for CAACAGGGGGCCACAGCAGAAGCGUUCACGUCGCAGCCCCUGUCAGAUUCUGGUGAAUCUGCGGAUUCUGCUGUAUUUCUG [U1C A64G A77U C81G], the self-cleavage is 0.75.

CAACAGGGGGCCACAGCAGAAGCGUUCACGUCGCAGCCCCUGUCGGAUUCCGGUGAAUCGGCGAAUUCUGCCGUAUAUCUC [U1C A45G U51C U60G U72C]: the self-cleavage is 0.14.

For the variant CAACAGGGGGCCACAGCAGAAGCGUUCACGUCGCGGCCCCUGUCAGAAUCUGGUGAAUCUGCGAGUUCUGCUGUAUAUCUC [U1C A35G U48A A65G], the self-cleavage was found to be 0.35.

As for CAACAGGGGGCCACAGCAGAAGCGUUCACGUCGCAGCCCCUGUCAGAUUCUGGUGACUCUGCGAAUUCUGCUGUAUAUCCC [U1C A57C U80C], the self-cleavage is 0.54.

In the case of CAACAGGGGGCCACAGCAGAAGCGUUCACGUCGCUGCCCUUGUCAGAUUCUGGUGAAUCUGCGAAUUCUGCUGUAUAUCUC [U1C A35U C40U], the self-cleavage was determined as 0.14.

With CAACAGGGGGCCACAGCAGAAGCGUUCUCGACGCAGCCCCUGUCAGAUUCUGGUGAAUCUGAGAAUUCUGCUGUAUAUCUC [U1C A28U U31A C62A], the self-cleavage is 0.27.

On to CAACAGGGGGCCACAGCAGAAGCGUUCACGUCGCUGCCCCUGUCAGAUUCUGGUGAAUCUGCGAACUCUGCUGUAUAUCUC [U1C A35U U66C], for which the self-cleavage stood at 0.17.

Turning to CAACAGGGGGCCACAGCAGAAGCGUUCACGUCGCGGCCCCUGUCAGAUUCUGGUGAAUCUGCGAAUUCUGCCGUAUAUCUC [U1C A35G U72C], the self-cleavage amounted to 1.24.

Take CAACAGGGGGCCACAGCAGAAGCGUUCUCGUCGCAGCCCCUGUCAGAUUCAGGUGAAUCUGCGGACUCUGCCGUAUAUCUC [U1C A28U U51A A64G U66C U72C]: the self-cleavage came to 0.05.

In the case of CAACAGGGGGCCACAGCAGAAGCGUUCACGUCGCUGCCCCCGACAGAUUCUGGUGAAUCUGCGAAUUCUGCUGUAUAUCUC [U1C A35U U41C U43A], the self-cleavage turned out to be 0.16.

CAACAGGGGGCCACAGCAGAAGCGUUCACGUCGCAGCCCCUGUCGGAUUAUGGUGAAUCUGCGAAUUCUGCUGUAUAUCUC [U1C A45G C50A]: the self-cleavage was found to be 0.47.

Consider CAACAGGGGGCCACAGCAGAAGCGUUCACGUCGCAGCCCCUGUCGGAUUCUGGUGAGUCUGCGAAUUCUGCUGUAUAUCUC [U1C A45G A57G], for which the self-cleavage was determined as 0.43.

For the variant CAACAGGGGGCCACAGCAGAAGCGUUCACGUCGCAGCCCCUGUCGGAUUCUGGUGACUCUGCGAAUUCUGCUGUAUAUCUC [U1C A45G A57C], the self-cleavage was determined as 0.35.

With CAACAGGGGGCCACAGCAGAAGCGUUCUCGACGCGGCCCCUGUCAGAUUCUGGUGAAUCUGCGAAUUCUGCUGUAUAUCUC [U1C A28U U31A A35G], the self-cleavage was determined as 1.05.

In the case of CAAAAGGGGGUCACAGCAGAAGCGUUCACGUCGCAGCCCCUGUCAGGUUCUGGUGGAUCUGCGAAUUCUGCUGUAAAUCUC [U1C C4A C11U A47G A56G U76A], the self-cleavage was found to be 0.07.

For the variant CAACAGGGGGCCACAGCAGAAGCGUUCACGUCGCUGCCCCUGUCAGAUUCAGGUGAAUCUGCGGAUUCUGCUGUAUAUCUC [U1C A35U U51A A64G], the self-cleavage is 0.26.

CAACAGGGGGCCACAGCAGAAGCGUUCACGUCGCAGCCCCUGUCAGGUUCUGGUGAAUAUGCGAAUUCUGCUGUAUAUCUC [U1C A47G C59A]: the self-cleavage is 0.4.

Turning to CAACAGGGGGCCACAGCAGAAGCGUUCACGUCGCAGCCCCUGUCUGAUUCUGGUGAAUCUGCGAAUUCUGCAGUAUAUCUC [U1C A45U U72A], the self-cleavage was 0.17.

CAACAGGGGGCCACAGCAGAAGCGUUCACGUCGCGGCCCCUGUCAGAUUCUGAUGAAUCUGCGAAUUCUGCUGUAUAUCCC [U1C A35G G53A U80C]: the self-cleavage turned out to be 1.24.

Turning to CAACAGGGGGCCACAGCAGAAGCGUUCACGUCGCGGCCCCCGUCAGAUUCUGGUGAAUCUGCGAAUUCUGCAGUAUAUCUC [U1C A35G U41C U72A], the self-cleavage came to 1.17.

With CAACAGGGGGCCACAGCAGAAGCGUUCACGUCGCGGCCCCUGUCAGAUCCUGGUGAAACUGCGAAUUCUGCAGUAUAUCUC [U1C A35G U49C U58A U72A], the self-cleavage was determined as 0.26.

As to CAAAAGGGGACCACAGCAGAGGCGUUCACGUCGCAGCCCCUGUCAGAUUCUGGUGAAUCUGCGAAUUCUGCUGUAUAUCCC [U1C C4A G10A A21G U80C], the self-cleavage was 0.06.

In the case of CAACAGGGGGCCACAGCAGAAGCGUUCACGUCGCGGCCCCAGUCAGAUUCUGGUGAAUCUGCGAAUUCUGCUGUAUAUCCC [U1C A35G U41A U80C], the self-cleavage stood at 0.39.

As to CAACAGGGGGCCACAGCAGAAGCGUUCACGUCGCAGCCCCUGUCUGAUCCUGGUGAAUCUGCGAAUUCUGCUGUAUAUCUC [U1C A45U U49C], the self-cleavage was 0.19.

Take CAACAGGGGGCCACAGCAGAAGCGUUCUCGUCGCAGCCCCUGACGGAUUCUGGUGAAUCUGCGAAUUCUGCUGUAUAUCUC [U1C A28U U43A A45G]: the self-cleavage came to 0.4.

For the variant CAACAGGGGGCCACAGCAGAAGCGUUCUCGUCGCAGCCCCUGUCAGAUUCAGGUGAAUCUGCGAAUUCUGCCGUAUAUCUC [U1C A28U U51A U72C], the self-cleavage is 1.01.

As to CAACAGGGGGCCACAGCAGAAGCGUUCACGUCGCAGCCCCUGUCAGGAUCUGGUGAAUCAGCGAAUUCUGCUGUAUAUCUC [U1C A47G U48A U60A], the self-cleavage was determined as 0.09.

CAACAGGGGGCCACAGCAGAAGCGUUCACGUCGCAGCCCCUGUCGGAUUCUGGUGAGUCUGCGAAUUUUGCUCUAUAUCUC [U1C A45G A57G C68U G73C]: the self-cleavage worked out at 0.75.

Regarding CAACAGGGGGCCACAGCAGAAGCGUUCACGUCGCAGCCCCUGUCAGAUUCUGGUGCAUCUGCGAAUUCUGCAGUAUAUCUC [U1C A56C U72A], the self-cleavage is 0.25.

With CAACAGGGGGCCACAGCAGAAGCGUUCACGUCGCAGCCCCUGUCAGAUUCUGGUGGUCCUGCGGAUUCUGCUGUAUAUCUC [U1C A56G A57U U58C A64G], the self-cleavage came to 0.14.

Turning to CAACAGGGGGCCACAGCAGAAGCGUUCACGUCGCAGCCCCUGUCGGGUUCUGGUGAAUCUGCGAAUUCUGCUGUAUAUCUC [U1C A45G A47G], the self-cleavage stood at 0.33.
